# Measured values as given in the supplement of paper PMC8728848.
# The other results are listed elsewhere or left out.
# B1: PX9961X-pdi-531-24-531 (Parabacteroides distasonis) (protein)
# chain: DLTEEIHSSVIAENYYNNAGEVMAAMMRPWGHFCGTMQVAQSPWSCNELSSDCAAWPQKGRHGYDNGDWIRLHRHQWIPTDGQVVDAWKKLFEGIGYANNFLTDTENIDFEALQVPMSKAQAQAEMRVYRAYCYWYVMDMFGTAPICEKIGEINPSSKSRAELFAWIEKELNESIPSLSESKTETYGRVSKWGAYALLARLYLNAEIYTGQARWDDCIAACDELAKGGFALDKKWNDTFRADNDKRSTEIIWSIVYDEVYAKGMGWYQRWLHYAHQTGWDLQSGPWNGLVTQPTFYDSFADNDLRKIEGFLIGKQYPRKVDENGNYYYDTTAEPLKGSEEYNGQDLVFVNYIKSMTEGEENSGARSIKYEIQPGTTGDMNNDWVMFRYSEVIYNKAEALMRKNGGKATQEVVDMINSVRQRSFKAEDWEKAKYTTATLTMDEFLAEKGREFAFEGIRRTDLVRFNKFVTTSWWDKTASNEPKRNIFPIPQRQLDANANLSPNEANSLF
# Tests used:
# Test in all cases: glycan array binding signal (z-score within array); higher = stronger binding
# Settings in all cases: glycan notation: IUPAC condensed, linker removed
# [1] = molecular target: Neu5Ac(a2-3)Gal(b1-4)GlcNAc(b1-2)[Neu5Ac(a2-3)Gal(b1-4)GlcNAc(b1-4)]Man(a1-3)[GlcNAc(b1-4)][Neu5Ac(a2-3)Gal(b1-4)GlcNAc(b1-4)Man(a1-6)]Man(b1-4)GlcNAc(b1-4)GlcNAc
# Summary of the method: (§1)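 From the Consortium for Functional Glycomics database, 3228 arrays were curated, keeping only those whose protein sequence was available. Binding is given as a within-array Z-score averaged across arrays sharing a protein sequence and across linkers. Negative Z-scores can be read as non-binding.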
# [2] = molecular target: Neu5Ac(a2-3)Gal(b1-4)GlcNAc(b1-2)[Neu5Ac(a2-3)Gal(b1-4)GlcNAc(b1-6)]Man(a1-6)[Neu5Ac(a2-3)Gal(b1-4)GlcNAc(b1-2)Man(a1-3)]Man(b1-4)GlcNAc(b1-4)GlcNAc
# Summary of the method: as §1
# [3] = molecular target: Neu5Ac(a2-3)Gal(b1-4)GlcNAc(b1-2)[Neu5Ac(a2-3)Gal(b1-4)GlcNAc(b1-6)]Man(a1-6)[Neu5Ac(a2-3)Gal(b1-4)GlcNAc(b1-2)Man(a1-3)][GlcNAc(b1-4)]Man(b1-4)GlcNAc(b1-4)GlcNAc
# Summary of the method: as §1
# [4] = molecular target: Neu5Ac(a2-3)Gal(b1-4)GlcNAc(b1-3)Gal
# Summary of the method: as §1
# [5] = molecular target: Neu5Ac(a2-3)Gal(b1-4)GlcNAc(b1-3)Gal(b1-3)GlcNAc
# Summary of the method: as §1
# [6] = molecular target: Neu5Ac(a2-3)Gal(b1-4)GlcNAc(b1-3)Gal(b1-4)GlcNAc
# Summary of the method: as §1
# [7] = molecular target: Neu5Ac(a2-3)Gal(b1-4)GlcNAc(b1-3)Gal(b1-4)GlcNAc(b1-2)Man(a1-3)[Neu5Ac(a2-3)Gal(b1-4)GlcNAc(b1-3)Gal(b1-4)GlcNAc(b1-2)Man(a1-6)]Man(b1-4)GlcNAc(b1-4)GlcNAc
# Summary of the method: as §1
# [8] = molecular target: Neu5Ac(a2-3)Gal(b1-4)GlcNAc(b1-3)Gal(b1-4)GlcNAc(b1-3)Gal(b1-4)GlcNAc
# Summary of the method: as §1
# [9] = molecular target: Neu5Ac(a2-3)Gal(b1-4)GlcNAc(b1-3)Gal(b1-4)GlcNAc(b1-3)Gal(b1-4)GlcNAc(b1-2)Man(a1-3)[Neu5Ac(a2-3)Gal(b1-4)GlcNAc(b1-3)Gal(b1-4)GlcNAc(b1-3)Gal(b1-4)GlcNAc(b1-2)Man(a1-6)]GalNAc
# Summary of the method: as §1
# [10] = molecular target: Neu5Ac(a2-3)Gal(b1-4)GlcNAc(b1-3)Gal(b1-4)GlcNAc(b1-3)GalNAc
# Summary of the method: as §1
# [11] = molecular target: Neu5Ac(a2-3)Gal(b1-4)GlcNAc(b1-3)Gal(b1-4)GlcNAc(b1-3)[Neu5Ac(a2-3)Gal(b1-4)GlcNAc(b1-3)Gal(b1-4)GlcNAc(b1-6)]GalNAc
# Summary of the method: as §1
# [12] = molecular target: Neu5Ac(a2-3)Gal(b1-4)GlcNAc(b1-3)Gal(b1-4)GlcNAc(b1-6)[Gal(b1-3)]GalNAc
# Summary of the method: as §1
# [13] = molecular target: Neu5Ac(a2-3)Gal(b1-4)GlcNAc(b1-3)Gal(b1-4)[Fuc(a1-3)]GlcNAc
# Summary of the method: as §1
# [14] = molecular target: Neu5Ac(a2-3)Gal(b1-4)GlcNAc(b1-3)GalNAc
# Summary of the method: as §1
# [15] = molecular target: Neu5Ac(a2-3)Gal(b1-4)GlcNAc(b1-3)[Neu5Ac(a2-3)Gal(b1-4)GlcNAc(b1-6)]GalNAc
# Summary of the method: as §1
# [16] = molecular target: Neu5Ac(a2-3)Gal(b1-4)GlcNAc(b1-6)GalNAc
# Summary of the method: as §1
# [17] = molecular target: Neu5Ac(a2-3)Gal(b1-4)GlcNAc(b1-6)[Gal(b1-3)]GalNAc
# Summary of the method: as §1
# [18] = molecular target: Neu5Ac(a2-3)Gal(b1-4)GlcNAc(b1-6)[Neu5Ac(a2-3)Gal(b1-3)]GalNAc
# Summary of the method: as §1
# [19] = molecular target: Neu5Ac(a2-3)Gal(b1-4)GlcNAc6S
# Summary of the method: as §1
# [20] = molecular target: Neu5Ac(a2-3)Gal(b1-4)[Fuc(a1-3)]GlcNAc
# Summary of the method: as §1
# [21] = molecular target: Neu5Ac(a2-3)Gal(b1-4)[Fuc(a1-3)]GlcNAc(b1-2)Man
# Summary of the method: as §1
# [22] = molecular target: Neu5Ac(a2-3)Gal(b1-4)[Fuc(a1-3)]GlcNAc(b1-3)Gal
# Summary of the method: as §1
# [23] = molecular target: Neu5Ac(a2-3)Gal(b1-4)[Fuc(a1-3)]GlcNAc(b1-3)Gal(b1-4)GlcNAc
# Summary of the method: as §1
# [24] = molecular target: Neu5Ac(a2-3)Gal(b1-4)[Fuc(a1-3)]GlcNAc(b1-3)Gal(b1-4)[Fuc(a1-3)]GlcNAc(b1-3)Gal(b1-4)[Fuc(a1-3)]GlcNAc
# Summary of the method: as §1
# [25] = molecular target: Neu5Ac(a2-3)Gal(b1-4)[Fuc(a1-3)]GlcNAc(b1-3)GalNAc
# Summary of the method: as §1
# [26] = molecular target: Neu5Ac(a2-3)Gal(b1-4)[Fuc(a1-3)]GlcNAc(b1-6)[Gal(b1-3)]GalNAc
# Summary of the method: as §1
# [27] = molecular target: Neu5Ac(a2-3)Gal(b1-4)[Fuc(a1-3)]GlcNAc(b1-6)[Neu5Ac(a2-3)Gal(b1-3)]GalNAc
# Summary of the method: as §1
# [28] = molecular target: Neu5Ac(a2-3)Gal(b1-4)[Fuc(a1-3)]GlcNAc6S
# Summary of the method: as §1
# [29] = molecular target: Neu5Ac(a2-3)Gal6S(b1-4)GlcNAc
# Summary of the method: as §1
# [30] = molecular target: Neu5Ac(a2-3)Gal6S(b1-4)[Fuc(a1-3)]GlcNAc
# Summary of the method: as §1
# Neu5Ac(a2-3)GalNAc = molecular target: Neu5Ac(a2-3)GalNAc
# Summary of the method: as §1
# [31] = molecular target: Neu5Ac(a2-3)GalNAc(b1-4)GlcNAc
# Summary of the method: as §1
# [32] = molecular target: Neu5Ac(a2-3)[GalNAc(b1-4)]Gal(b1-4)Glc
# Summary of the method: as §1
# [33] = molecular target: Neu5Ac(a2-3)[GalNAc(b1-4)]Gal(b1-4)GlcNAc
# Summary of the method: as §1
# [34] = molecular target: Neu5Ac(a2-3)[GalNAc(b1-4)]Gal(b1-4)GlcNAc(b1-3)GalNAc
# Summary of the method: as §1
# [35] = molecular target: Neu5Ac(a2-3)[Neu5Ac(a2-6)]GalNAc
# Summary of the method: as §1
# Neu5Ac(a2-6)Gal = molecular target: Neu5Ac(a2-6)Gal
# Summary of the method: as §1
# [36] = molecular target: Neu5Ac(a2-6)Gal(b1-3)GlcNAc(b1-3)[Gal(b1-4)GlcNAc(b1-6)]Gal(b1-4)Glc
# Summary of the method: as §1
# Neu5Ac(a2-6)Gal(b1-4)Glc = molecular target: Neu5Ac(a2-6)Gal(b1-4)Glc
# Summary of the method: as §1
# [37] = molecular target: Neu5Ac(a2-6)Gal(b1-4)GlcNAc
# Summary of the method: as §1
# [38] = molecular target: Neu5Ac(a2-6)Gal(b1-4)GlcNAc(b1-2)Man
# Summary of the method: as §1
# [39] = molecular target: Neu5Ac(a2-6)Gal(b1-4)GlcNAc(b1-2)Man(a1-3)Man(b1-4)GlcNAc(b1-4)GlcNAc
# Summary of the method: as §1
# [40] = molecular target: Neu5Ac(a2-6)Gal(b1-4)GlcNAc(b1-2)Man(a1-3)[Gal(b1-4)GlcNAc(b1-2)Man(a1-6)]Man(b1-4)GlcNAc(b1-4)GlcNAc
# Summary of the method: as §1
# [41] = molecular target: Neu5Ac(a2-6)Gal(b1-4)GlcNAc(b1-2)Man(a1-3)[GlcNAc(b1-2)Man(a1-6)]Man(b1-4)GlcNAc(b1-4)GlcNAc
# Summary of the method: as §1
# [42] = molecular target: Neu5Ac(a2-6)Gal(b1-4)GlcNAc(b1-2)Man(a1-3)[GlcNAc(b1-4)][Neu5Ac(a2-6)Gal(b1-4)GlcNAc(b1-2)Man(a1-6)]Man(b1-4)GlcNAc(b1-4)GlcNAc
# Summary of the method: as §1
binder,measurement,setting,value
B1,glycan array binding signal (z-score),[1],-0.254
same,glycan array binding signal (z-score),[2],0.2
same,glycan array binding signal (z-score),[3],-0.416
same,glycan array binding signal (z-score),[4],-0.183
same,glycan array binding signal (z-score),[5],0.115
same,glycan array binding signal (z-score),[6],-0.367
same,glycan array binding signal (z-score),[7],0.738
same,glycan array binding signal (z-score),[8],-0.134
same,glycan array binding signal (z-score),[9],1.07
same,glycan array binding signal (z-score),[10],-0.038
same,glycan array binding signal (z-score),[11],-0.773
same,glycan array binding signal (z-score),[12],-0.327
same,glycan array binding signal (z-score),[13],-0.564
same,glycan array binding signal (z-score),[14],0.228
same,glycan array binding signal (z-score),[15],-0.08
same,glycan array binding signal (z-score),[16],-0.431
same,glycan array binding signal (z-score),[17],0.534
same,glycan array binding signal (z-score),[18],-0.568
same,glycan array binding signal (z-score),[19],-0.58
same,glycan array binding signal (z-score),[20],-0.313
same,glycan array binding signal (z-score),[21],-0.632
same,glycan array binding signal (z-score),[22],-0.709
same,glycan array binding signal (z-score),[23],0.562
same,glycan array binding signal (z-score),[24],0.295
same,glycan array binding signal (z-score),[25],2.11
same,glycan array binding signal (z-score),[26],1.2
same,glycan array binding signal (z-score),[27],0.962
same,glycan array binding signal (z-score),[28],-0.754
same,glycan array binding signal (z-score),[29],-0.562
same,glycan array binding signal (z-score),[30],-0.385
same,glycan array binding signal (z-score),Neu5Ac(a2-3)GalNAc,-0.246
same,glycan array binding signal (z-score),[31],-0.07
same,glycan array binding signal (z-score),[32],-0.049
same,glycan array binding signal (z-score),[33],-0.247
same,glycan array binding signal (z-score),[34],-0.439
same,glycan array binding signal (z-score),[35],-0.986
same,glycan array binding signal (z-score),Neu5Ac(a2-6)Gal,-0.587
same,glycan array binding signal (z-score),[36],-0.549
same,glycan array binding signal (z-score),Neu5Ac(a2-6)Gal(b1-4)Glc,0.033
same,glycan array binding signal (z-score),[37],-0.955
same,glycan array binding signal (z-score),[38],-0.14
same,glycan array binding signal (z-score),[39],-0.356
same,glycan array binding signal (z-score),[40],0.644
same,glycan array binding signal (z-score),[41],1.05
same,glycan array binding signal (z-score),[42],-0.738
